# Experimental data: publication PMC6522912, “Evaluation of the published kinase inhibitor set to identify multiple inhibitors of bacterial ATP-dependent mur ligases” (Journal of Enzyme Inhibition and Medicinal Chemistry, 2019)
# Where two headings read alike, the source gives them in different places.
# Key:
# E. coli MurC = E. coli MurC (Escherichia coli, UniProt P17952); assay: Malachite green inhibition assay, MurC; format: biochemical; conditions: 0.25 h
# Method: (§1) Inhibition of the Mur ligases was determined using the malachite green assay, with slight modifications.
# (§2) In all cases, the final concentration of DMSO was 5% (v/v). After incubation for 15 min at 37 °C, the enzyme reaction was terminated by addition of 100 µM Biomol green reagent, and the absorbance was measured at 650 nm after 5 min. All of the experiments were run in duplicate. Residual activities were calculated with respect to control assays without the tested compounds, but with the 5% DMSO carrier.
# (§3) The published kinase inhibitor set compounds were evaluated for inhibition of MurC, D and F ligases from E. coli using the Malachite green assay, which detects orthophosphate generated during enzymatic reactions. To avoid non-specific inhibition due to aggregate formation, all of the compounds were tested in the presence of detergent (0.005% Triton-X114). The data are presented as the residual activities of these Mur ligases in the presence of 100 µM of each test compound (Supporting Information Table S1). […] Additionally, regarding the data of profiled compounds in large panels of human kinase assays[41]
# E. coli MurD = E. coli MurD (Escherichia coli, UniProt P14900); assay: biochemical; conditions: 0.25 h, read-out: RA [%] at 100 µM MurD
# Method: as §1, §2
# The published kinase inhibitor set compounds were evaluated for inhibition of MurC, D and F ligases from E. coli using the Malachite green assay, which detects orthophosphate generated during enzymatic reactions. To avoid non-specific inhibition due to aggregate formation, all of the compounds were tested in the presence of detergent (0.005% Triton-X114). The data are presented as the residual activities of these Mur ligases in the presence of 100 µM of each test compound (Supporting Information Table S1).
# E. coli MurF = E. coli MurF (Escherichia coli, UniProt P11880); assay: biochemical; conditions: 0.25 h, read-out: RA [%] at 100 µM MurF
# Method: as §1, §2, §3
# [1] = Table S1, PKIS screening, read-out: RA [%] at 100 µM MurC
# [2] = read-out: RA [%] at 100 µM MurC, Table S1, PKIS screening
Structure (SMILES),remaining activity at 100 µM (E. coli MurC; [1]) [%],remaining activity at 100 µM (E. coli MurD) [%],remaining activity at 100 µM (E. coli MurF) [%],remaining activity at 100 µM (E. coli MurC; [2]) [%]
Fc1ccc(Oc2nccc(-c3c(-c4ccc(F)cc4)ncn3C3CCNCC3)n2)cc1 [SB-242717],79,100,72,
COc1ccccc1Oc1nccc(-c2c(-c3ccc(F)cc3)ncn2C2CCNCC2)n1 [SB-251527],58,71,74,
Fc1ccc(-c2ncn(C3CCNCC3)c2-c2ccnc(Oc3cccc(C(F)(F)F)c3)n2)cc1 [SB-253226],42,24,69,
CS(=O)(=O)c1ccc(Oc2nccc(-c3c(-c4ccc(F)cc4)ncn3C3CCNCC3)n2)cc1 [SB-254169],,49,48,18
NC(=O)CCc1ccccc1Oc1nccc(-c2c(-c3ccc(F)cc3)ncn2C2CCNCC2)n1 [SB-264866],74,83,84,
CC(C)(C)c1ccc(Oc2nccc(-c3c(-c4ccc(F)cc4)ncn3C3CCNCC3)n2)cc1 [SB-278538],75,57,73,
Fc1ccc(-c2ncn(C3CCNCC3)c2-c2ccnc(Oc3ccc(Cl)cc3)n2)cc1 [SB-278539],,52,74,55
O=C1NC(=O)C(c2cccc([N+](=O)[O-])c2)=C1Nc1cc(Cl)c(O)c(Cl)c1 [SB-358518],65,79,83,
COc1ccccc1C1=C(Nc2ccccc2)C(=O)NC1=O [SB-376719],66,89,97,
O=C1NC(=O)C(c2ccccc2Cl)=C1Nc1cc(Cl)c(O)c(Cl)c1 [SB-390523],100,92,88,
O=C1NC(=O)C(c2ccccc2)=C1Nc1ccccc1 [SKF-62604],61,86,100,
